Experimental data taken from the RNAGym collection of RNA variant scans (doi:10.1073/pnas.2313332121).
This sample is rich in variants without activity.

B1: TPR 5TU (parent)
chain: GGAUCUUCUCGAUCUAACAAAAAAGACAAAUCUGCCACAAAGCUUGAGAGCAUCUUCGGAUGCAGAGGCGGCAGCCUUCGGUGGCGCGAUAGCGCCAACGUUCUCAACUAUGACACGCAAAACGCGUGCUCCGUUGAAUGGAGUUUAUCAUG

Variants of: B1
Assay: polymerase ribozyme fitness, log enrichment relative to wild type (log ratio); higher = more active; in vitro selection for triplet polymerase activity
Outline: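 Fitness compares each genotype's enrichment to that of the wild type on a logarithmic scale, averaging replicates with inverse-variance weights. The logarithm is base 2. Enrichment came from Illumina sequencing of input and output libraries after one triplicate round of in vitro selection, which included frozen incubation at −7 °C, of PCR-built, transcribed mutant libraries of each subunit of a heterodimeric triplet polymerase ribozyme. Only genotypes with ≥10 input reads and ≥1 read per output were kept.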

Point of comparison: C14U C76A C87U, “polymerase ribozyme fitness (log ratio)” value -3.49. Against it:
- C14U U61G A64C A66C U151G — lower, ≤ -4.2
- C14G G42C G83A U144C U148C — lower, ≤ -4.2
- C14U G92C A150U — lower, -4.2
- C14A U15G C93A C116G U135G — lower, ≤ -4.2
- C14G U53G C69U — lower, ≤ -4.2
- U15G A73U C93U A120G — higher, -2.43
- U15G A19G A23U C32A C36U A37G A40U C103G — lower, ≤ -4.2
- C14U U144G — higher, -0.898
- U15A C63U U151A — lower, -3.9
- C14G C43A G88U A110U G112C U127G — lower, ≤ -4.2
- C14G C93G C131U U148G — lower, ≤ -4.2
- C14U C69U G133U — lower, ≤ -4.2
- U15A A20G A28U C38A A49G G70C G133U U144G — lower, ≤ -4.2
- U15C G50C G88A C105U C129U — lower, ≤ -4.2
- U15G A41C G68U C79U G80A A119U — lower, ≤ -4.2
- C14G C75A U82G C118A — lower, ≤ -4.2
- C14U C36A U56A A60C G67C C79A C87U U101C A115U — lower, ≤ -4.2
- U15G C18G A40U — higher, -1.5
- C14G A20G A39G G67A A97G — lower, ≤ -4.2
- U13G U31C C96A — higher, -0.864
- C14G A47U A52G G117U G126U — lower, ≤ -4.2
- U15G C43U G59A G94U — lower, ≤ -4.2
- C14U A21U A29U C35U A41G C76U C96U C149U — lower, ≤ -4.2
- C14U C35G U53A C76U G92C A120U U148A — lower, ≤ -4.2
- C14U C36U A41U C85U C87U C116A — lower, ≤ -4.2
- U15G C27G G50A A52C A64G C99U G136C — lower, ≤ -4.2
- C14G A37U C63U C105G — lower, ≤ -4.2
- C14G A23G A28G G140A U144G — lower, ≤ -4.2
- C14G C75U C96A C103G A142C — lower, ≤ -4.2
- C14U U53A U77A G88U G94A G133A A137U A142U — lower, ≤ -4.2
- C14G A28U U55G G86U — lower, ≤ -4.2
- C14U C43G G48U G92A G136U — lower, ≤ -4.2
- U15A A19C A52G G83A C103G — lower, -3.83
- C14G C32G U82G G92U — lower, ≤ -4.2
- C14U C87U G88A U144C — lower, ≤ -4.2
- C14G A52U A91C C125U — lower, ≤ -4.2
- U15A A24G C85U A107C U111A U135A — lower, ≤ -4.2
- C14U A20C C51G G70C A91U G100A G140C — lower, ≤ -4.2
- C14G A19C A20C G25A U82G A91U — lower, ≤ -4.2
- U15C A16G G59U A60G G92A C116U — higher, -0.967
- C14A C27G C32G U77C G84A — lower, ≤ -4.2
- C14G C35A C38U A60C G74U A110U — lower, ≤ -4.2
- C14U C57U — higher, -1.27
- C14G U31A G136A — higher, -2.23
- C14U G67A U151C — lower, ≤ -4.2
- C14U A40U A66C G71C A142C — lower, ≤ -4.2
- U15A G59U C79G C93A U134A — lower, ≤ -4.2
- C14U A40U G88A C95A A150U — lower, ≤ -4.2
- C14G C32G C35A G84C C123A — lower, ≤ -4.2
- C14U U53G G94C A98G C123G — lower, ≤ -4.2
- U15C A20G A21U A39U C76U C85A C103A C108U — lower, ≤ -4.2
- C14A A150G — higher, -2.78
- C14G U15C C43G C93U A106C C108A G126A A137G C149U — lower, ≤ -4.2
- C14G A17U C43U U61G G88U — lower, ≤ -4.2
- C14A G83A — higher, -0.809
- U15G A98G A122C G124U — higher, -1.76
- U15G C32G C54A G86A — lower, ≤ -4.2
- U13G G92C C114U A150U — lower, ≤ -4.2
- C14U A16C C57G G83U C85U A107G G140C A142C — lower, ≤ -4.2
- C14A A22G A30G U31A A52U G83A U151C — lower, ≤ -4.2
- C14G G133U — lower, ≤ -4.2
- U15A C96U G126U U130A — lower, ≤ -4.2
- U15A A21C A28C G67C A113C G128U — lower, ≤ -4.2
- C14A U53A C96A A98C A120U G141A — lower, -3.99
- U15A G46C G92U C93A A113U U139G — lower, ≤ -4.2
- C14U G46A C54A C132A — lower, ≤ -4.2
- U13G U77G U145G U151G — lower, ≤ -4.2
- C14G U56A C85G G92A — lower, ≤ -4.2
- C14G G42C C54A C87U C99U U134C — lower, ≤ -4.2
- C14U A23U A47U C85U U101G U109G U148G — lower, ≤ -4.2
- U15C G71C G92A A106U C114A — lower, ≤ -4.2
- C14A A49C C57A G83A C105A — lower, ≤ -4.2
- U15C C32A A40C C51G C76U A91G A138U — lower, ≤ -4.2
- U15A C18G A52C C54U C87G C96U A106G — lower, ≤ -4.2
- U15C A21C U61A G62C C95A U104A A138U — lower, ≤ -4.2
- C14U A19C A41U C63G C93G C103A — lower, ≤ -4.2
- U15G A19C A47C G80A C85U C87G C105G — lower, ≤ -4.2
- C14G A21C G81U G83U U111A G140A U146G — lower, ≤ -4.2
- C14A G58A A89U G94U — lower, -3.75
- C14U G59U U61C C108A U109G G117A — lower, ≤ -4.2
- C14A A30U A40U U144C C149A — lower, ≤ -4.2
- C14U A17G A28U G83C — lower, ≤ -4.2
